In all, about 18,000 sequences were measured (“TetR repression strength (sort-seq, GFP reporter)”: median about 0.23, highest 2% from about 0.68 on). The list shows a part of the results.
These sequences were tested against TetR (class B, Tn10) (UniProt P04483) (assay: TetR repression strength (sort-seq, GFP reporter) (relative to tetO2 = 1); higher = stronger repression). Details: E. coli.
Chain of UniProt P04483 (P04483 whole entry): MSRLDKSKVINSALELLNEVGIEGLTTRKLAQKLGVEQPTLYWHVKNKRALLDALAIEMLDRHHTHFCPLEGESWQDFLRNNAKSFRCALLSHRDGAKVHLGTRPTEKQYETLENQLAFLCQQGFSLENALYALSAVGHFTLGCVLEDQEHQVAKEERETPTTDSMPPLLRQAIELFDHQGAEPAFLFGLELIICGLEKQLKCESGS
Outline: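 Repression strength is the top bin index plus one minus the read-weighted mean bin, relative to the unaltered operator's value. A low-copy library in E. coli SIG10-MAX randomized eight operator positions between a constitutive promoter and sfGFP, with TetR expressed constitutively; cells grew 5 h at 37 °C in LB with 50 µg/mL chloramphenicol and 10^6 were FACS-sorted into 13 bins that were each Illumina-sequenced. Three independent transformations were averaged, keeping only members with ≥30 reads in all replicates and CV ≤0.5.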
TCCCTCTGAGTGTAAGAGA was tested, and the TetR repression strength was 0.23.
TCCCCTGTAGTCTTTGAGA was tested, and the TetR repression strength was 0.256.
Work on TCCCTATGAGTGGGCGAGA yielded a TetR repression strength of 0.164.
With TCCCATTGAGTCGCAGAGA the TetR repression strength was 0.151.
TCCCCGAGAGTGTGCGAGA gave a TetR repression strength of 0.473.
TCCCGCTGAGTAGGGGAGA was tested, and the TetR repression strength was 0.269.
In the case of TCCCATCCAGTGGTGGAGA, the TetR repression strength is reported as 0.0246.
TCCCAGCAAGTCGAGGAGA gave a TetR repression strength of 0.446.
TCCCACTCAGTTAGAGAGA showed a TetR repression strength of 0.677.
TCCCTTGCAGTCCTCGAGA was tested, and the TetR repression strength was 0.543.
With TCCCGATCAGTCATGGAGA the TetR repression strength was 0.268.
TCCCGGCGAGTGATAGAGA showed a TetR repression strength of 0.484.
With TCCCTTGCAGTCCGTGAGA the TetR repression strength was 0.301.
Work on TCCCAGAAAGTAGGCGAGA yielded a TetR repression strength of 0.0682.
TCCCCCTAAGTGAGGGAGA was tested, and the TetR repression strength was 0.167.
Sequence TCCCTAAGAGTGATGGAGA has a TetR repression strength of 0.243.
For TCCCAGTCAGTGCATGAGA, the TetR repression strength was 0.177.
With TCCCTTCAAGTGCCTGAGA the TetR repression strength was 0.503.
Work on TCCCGCACAGTAGTTGAGA yielded a TetR repression strength of 0.043.
Sequence TCCCTGATAGTACGGGAGA has a TetR repression strength of 0.107.
Sequence TCCCTAGCAGTAAGCGAGA has a TetR repression strength of 0.226.
With TCCCTATCAGTGTCAGAGA the TetR repression strength was 0.958.
In the case of TCCCCGCGAGTGTGTGAGA, the TetR repression strength is reported as 0.206.
In the case of TCCCGCGGAGTTGTAGAGA, the TetR repression strength is reported as 0.106.
TCCCCTGCAGTCGTAGAGA gave a TetR repression strength of 0.346.
TCCCAACTAGTGTTGGAGA gave a TetR repression strength of 0.309.
TCCCATTGAGTAATTGAGA gave a TetR repression strength of 0.104.
In the case of TCCCCTACAGTCCGCGAGA, the TetR repression strength is reported as 0.527.
In the case of TCCCACTCAGTAGATGAGA, the TetR repression strength is reported as 0.343.
Work on TCCCAGCGAGTTGTTGAGA yielded a TetR repression strength of 0.177.
Sequence TCCCACATAGTTGTGGAGA has a TetR repression strength of 0.178.
TCCCATGCAGTGGAGGAGA gave a TetR repression strength of 0.254.
In the case of TCCCCCGGAGTTAGAGAGA, the TetR repression strength is reported as 0.255.
For TCCCTCAGAGTCACAGAGA, the TetR repression strength was 0.151.
In the case of TCCCCAGGAGTGTCAGAGA, the TetR repression strength is reported as 0.26.
Work on TCCCCTAAAGTTCGCGAGA yielded a TetR repression strength of 0.486.
Work on TCCCTATGAGTTGGGGAGA yielded a TetR repression strength of 0.218.
TCCCCTCGAGTTCGAGAGA gave a TetR repression strength of 0.323.
TCCCAAGAAGTTGAAGAGA showed a TetR repression strength of 0.154.
For TCCCCCGAAGTGTGGGAGA, the TetR repression strength was 0.219.
For TCCCATCTAGTATAGGAGA, the TetR repression strength was 0.242.
TCCCTGAGAGTAGTTGAGA was tested, and the TetR repression strength was 0.0923.
TCCCGAAGAGTTCGTGAGA showed a TetR repression strength of 0.224.
For TCCCACGCAGTTCTTGAGA, the TetR repression strength was 0.219.
TCCCAATTAGTGGTAGAGA was tested, and the TetR repression strength was 0.326.
Sequence TCCCAATTAGTGAACGAGA has a TetR repression strength of 0.332.
For TCCCGAGTAGTATCTGAGA, the TetR repression strength was 0.219.
Work on TCCCGGACAGTCTAGGAGA yielded a TetR repression strength of 0.201.
For TCCCGTCGAGTAGAGGAGA, the TetR repression strength was 0.331.
TCCCTCAGAGTAAGGGAGA gave a TetR repression strength of 0.267.
TCCCCCAGAGTGCATGAGA gave a TetR repression strength of 0.527.
With TCCCCTGAAGTTTGGGAGA the TetR repression strength was 0.218.
Work on TCCCCACCAGTAGGGGAGA yielded a TetR repression strength of 0.215.
TCCCAGATAGTCTGGGAGA gave a TetR repression strength of 0.104.
With TCCCACTGAGTGGGCGAGA the TetR repression strength was 0.222.
In the case of TCCCATACAGTGAGTGAGA, the TetR repression strength is reported as 0.176.
TCCCCGAAAGTCGTGGAGA gave a TetR repression strength of 0.247.
TCCCAGAGAGTCGTCGAGA was tested, and the TetR repression strength was 0.104.
TCCCAATAAGTATTTGAGA gave a TetR repression strength of 0.281.
Work on TCCCAAAAAGTGTAGGAGA yielded a TetR repression strength of 0.263.
With TCCCTACTAGTCCGCGAGA the TetR repression strength was 0.45.
For TCCCGCCGAGTCTGGGAGA, the TetR repression strength was 0.0453.
TCCCCGAGAGTGCTTGAGA gave a TetR repression strength of 0.132.
In the case of TCCCGGACAGTATATGAGA, the TetR repression strength is reported as 0.304.
TCCCACCAAGTGATAGAGA gave a TetR repression strength of 0.531.
TCCCCTTCAGTCCGTGAGA showed a TetR repression strength of 0.338.
TCCCTTGCAGTCTGTGAGA gave a TetR repression strength of 0.619.
TCCCTAGAAGTATTCGAGA was tested, and the TetR repression strength was 0.0484.
For TCCCACACAGTGTCCGAGA, the TetR repression strength was 0.251.
Work on TCCCGTATAGTTCTTGAGA yielded a TetR repression strength of 0.207.
For TCCCCGACAGTCTGGGAGA, the TetR repression strength was 0.134.
TCCCAGGGAGTATGCGAGA showed a TetR repression strength of 0.328.
For TCCCGCTGAGTGTGCGAGA, the TetR repression strength was 0.00864.
TCCCGTCGAGTCTGGGAGA gave a TetR repression strength of 0.226.
Work on TCCCTCACAGTTAGCGAGA yielded a TetR repression strength of 0.264.
TCCCGTACAGTGGATGAGA was tested, and the TetR repression strength was 0.32.
TCCCGTCCAGTGATGGAGA gave a TetR repression strength of 0.324.
TCCCGTGGAGTGCGGGAGA was tested, and the TetR repression strength was 0.189.
TCCCCGCCAGTGCACGAGA showed a TetR repression strength of 0.186.
With TCCCCAGAAGTATACGAGA the TetR repression strength was 0.538.
Work on TCCCATATAGTTTCAGAGA yielded a TetR repression strength of 0.0524.
TCCCCATCAGTGTTCGAGA was tested, and the TetR repression strength was 0.202.
Sequence TCCCTCTTAGTGCGCGAGA has a TetR repression strength of 0.29.
TCCCGACTAGTCATGGAGA gave a TetR repression strength of 0.128.
TCCCCTGCAGTAGGAGAGA showed a TetR repression strength of 0.233.
TCCCAATGAGTAAGGGAGA was tested, and the TetR repression strength was 0.276.
TCCCAACGAGTCTAGGAGA gave a TetR repression strength of 0.251.
TCCCGTTGAGTACTAGAGA was tested, and the TetR repression strength was 0.02.
For TCCCGAGTAGTGTGTGAGA, the TetR repression strength was 0.28.
TCCCATGTAGTTCTCGAGA was tested, and the TetR repression strength was 0.135.
TCCCTATGAGTGCTTGAGA was tested, and the TetR repression strength was 0.335.
Work on TCCCTAGCAGTAGGTGAGA yielded a TetR repression strength of 0.519.
For TCCCAAGTAGTCTAAGAGA, the TetR repression strength was 0.237.
In the case of TCCCTGCAAGTCTGAGAGA, the TetR repression strength is reported as 0.211.
In the case of TCCCGTAAAGTCGCTGAGA, the TetR repression strength is reported as 0.261.
Work on TCCCGGACAGTGAGTGAGA yielded a TetR repression strength of 0.249.
TCCCGGATAGTCGGAGAGA was tested, and the TetR repression strength was 0.159.
Sequence TCCCGTTTAGTGGGCGAGA has a TetR repression strength of 0.207.
Sequence TCCCTAGCAGTGTCCGAGA has a TetR repression strength of 0.342.
For TCCCTATCAGTTTCTGAGA, the TetR repression strength was 0.638.
Work on TCCCAACAAGTCTTGGAGA yielded a TetR repression strength of 0.
For TCCCCCCCAGTGGATGAGA, the TetR repression strength was 0.232.
